According to publication PMC7819943, “Rice protein-binding microarrays: a tool to detect cis-acting elements near promoter regions in rice”:
Some of the results follow.

Each sequence was assayed against T1, OsWOX13 (Oryza sativa, UniProt Q5QMM3 1-267) (assay: protein-binding microarray (RPBM); PBS, 2% BSA, 51.3 ng/ul salmon testes DNA, 50 uM zinc acetate, 200 nM TF, 25 C, 1 h; high values mean tight binding). Conditions: protein: recombinant; tags: N-terminal polyhistidine and DsRed monomer fusion (pET32a); label: CyDye5-dUTP incorporated in the synthesized complementary strand; 3' TTTTT single-stranded linker to array surface; dsDNA, one strand shown.
T1 sequence: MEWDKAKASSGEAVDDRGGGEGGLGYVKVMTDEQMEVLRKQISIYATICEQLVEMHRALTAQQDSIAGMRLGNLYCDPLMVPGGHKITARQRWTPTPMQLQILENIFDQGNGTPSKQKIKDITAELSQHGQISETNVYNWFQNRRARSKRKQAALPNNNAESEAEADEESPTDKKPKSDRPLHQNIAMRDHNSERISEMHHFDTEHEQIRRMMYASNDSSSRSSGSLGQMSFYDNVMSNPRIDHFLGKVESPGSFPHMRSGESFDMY
Method in brief: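 Ni–NTA purification followed expression in E. coli BL21-CodonPlus of transcription factors fused N-terminally to a polyhistidine tag and DsRed. At 200 nM in PBS with 2% BSA, salmon testes DNA and 50 µM zinc acetate, the protein was incubated for 1 h at 25 °C with a custom Agilent array that had been primer-extended with Cy5-dUTP and blocked with 2% BSA. After washing, the array was read on an Axon 4000B scanner. The binding signal is per-feature fluorescence intensity in arbitrary units.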

Sequence	binding signal
ATCCATCCAATCAATCTCCAGTAGTATTGTACTAATCTCTCGGAGTCACCTAGTGCAG	20100 fluorescence intensity (a.u.)
GTATTGTCAATTACCTTGTTGGTGCTGCTGGATTCTGTACCGGAGTCACCTAGTGCAG	12100 fluorescence intensity (a.u.)
TACAAATTTATAATGGCATGGTTCTAATTTTCTCTTAGAACGGAGTCACCTAGTGCAG	12200 fluorescence intensity (a.u.)
ACGCCATGATTTGACAATGTGATGCTACAGTAAACATTTGCGGAGTCACCTAGTGCAG	23300 fluorescence intensity (a.u.)
ATTAGATTTATATTCCTTCTGTCTATATTCTGGACAGGTCCGGAGTCACCTAGTGCAG	18300 fluorescence intensity (a.u.)
GTCTGATAAGTCTTTGATTTGCTAGTACCGGCATCGCCTGCGGAGTCACCTAGTGCAG	14700 fluorescence intensity (a.u.)
GACACTGACATACATAATCTAATCAAATTATGTACTACCCCGGAGTCACCTAGTGCAG	21200 fluorescence intensity (a.u.)
TTTAATTATATTATCACTGACATGTGGGTCCCACTATATGCGGAGTCACCTAGTGCAG	34000 fluorescence intensity (a.u.)
TATCTCAATAATAATGTTAACGGATTAGATTCCACGCTCTCGGAGTCACCTAGTGCAG	3380 fluorescence intensity (a.u.)
TTCGAGTTCTTCTTAATTGGAGTTCTTGGAGCAGCATCGGCGGAGTCACCTAGTGCAG	3590 fluorescence intensity (a.u.)
TAAACAGATCCTAATTACTCCTGCACACAACGCGCACGTCCGGAGTCACCTAGTGCAG	7980 fluorescence intensity (a.u.)
CCGCACTCTATTATTGTATTGATTAGCTTGTGTCATTCGCCGGAGTCACCTAGTGCAG	20500 fluorescence intensity (a.u.)
TCTAATCAATCAGAAGATAGACGAGAGATGAGCTGCTTCTCGGAGTCACCTAGTGCAG	34900 fluorescence intensity (a.u.)
TAAGTCAAATAAGCCAATCAACGGATTTTCTTTAGTTGAACGGAGTCACCTAGTGCAG	17600 fluorescence intensity (a.u.)
ATTTTAATTATTTAATCATATATTTGTAAATTTAATTAAACGGAGTCACCTAGTGCAG	27900 fluorescence intensity (a.u.)
ATCCAAATTAATATGGATGTTAATAAATCTAGGCATATATCGGAGTCACCTAGTGCAG	11500 fluorescence intensity (a.u.)
TCGTGTAAAAGCCCTGATTGCTAGGGTGAAACTTATAATGCGGAGTCACCTAGTGCAG	4320 fluorescence intensity (a.u.)
CAAATCAATTATCAGGTTGCAGATTATGCTTTTAGGAAGTCGGAGTCACCTAGTGCAG	18800 fluorescence intensity (a.u.)
GGTGTATGTGACTTCCAAATTAACATATGAAAGTGATGGCCGGAGTCACCTAGTGCAG	3660 fluorescence intensity (a.u.)
CGATAATGACACGGAATTATCTTACTAAGCCCGGATTAATCGGAGTCACCTAGTGCAG	12100 fluorescence intensity (a.u.)
CCCTCCATTCCAAATTGATCTACATATTTCATAGGTACACCGGAGTCACCTAGTGCAG	4100 fluorescence intensity (a.u.)

Sequence	binding signal
CTTTATTTGTCGTCCAGTCTAATTTTCGTCCCTTGACCGCCGGAGTCACCTAGTGCAG	4020 fluorescence intensity (a.u.)
TGGATAATAAATCTCACTAATTAATTAATAGTACTAAGGACGGAGTCACCTAGTGCAG	22000 fluorescence intensity (a.u.)
ACGTGACTCAATTGATTAGGTTTCTTAAAGTGGAATCAGCCGGAGTCACCTAGTGCAG	23200 fluorescence intensity (a.u.)
ATAATGATTAATGAAATACTTAGTGGTTGACCTTGTGCAGCGGAGTCACCTAGTGCAG	21800 fluorescence intensity (a.u.)
GACGCGCGCGATCGTCAATCATGCAGACGATCGATCACATCGGAGTCACCTAGTGCAG	7620 fluorescence intensity (a.u.)
ATTGAATGACAATAGAATGAAGCTTGAAGTTACATCTAGACGGAGTCACCTAGTGCAG	4030 fluorescence intensity (a.u.)
TACTAAAAGAAATTAAGATTATTCATTAATTTTAGCTATCCGGAGTCACCTAGTGCAG	5410 fluorescence intensity (a.u.)
TACATAGTCATCAATCATCACATATCAGCAACACATATCACGGAGTCACCTAGTGCAG	14800 fluorescence intensity (a.u.)
CCAGCCATGATTGTGGCGCCGTGCTCCTTCTCCTTCGTTCCGGAGTCACCTAGTGCAG	5750 fluorescence intensity (a.u.)
ACTGATAGTAAATGAATTACTAAAGTCACACATATTATTGCGGAGTCACCTAGTGCAG	6140 fluorescence intensity (a.u.)
TTCATCATCAGATTAATTATTAAAACGGACTATTTACTCTCGGAGTCACCTAGTGCAG	4380 fluorescence intensity (a.u.)
GCTTTGATTGGCCTGATCTTTCGGTGAGTTGAGATAACTACGGAGTCACCTAGTGCAG	42700 fluorescence intensity (a.u.)
TAAATTGCCCAATCACAAGATATCTACCACTGTAGGCTGTCGGAGTCACCTAGTGCAG	24600 fluorescence intensity (a.u.)
ATGGTTGATTGATTGCATATATTTGAACAAATGATCTTTGCGGAGTCACCTAGTGCAG	65500 fluorescence intensity (a.u.)
TCCAACGGTGCCGCTTAATTAGTGATTAATTATCCTAATTCGGAGTCACCTAGTGCAG	16400 fluorescence intensity (a.u.)
TGGAACTGTGCAAATTAAATTATGTGATATAGTGTGATTACGGAGTCACCTAGTGCAG	13300 fluorescence intensity (a.u.)
TTAAAACTTAATTAGTTATACTTCCTTCGTACTCATAGAGCGGAGTCACCTAGTGCAG	17500 fluorescence intensity (a.u.)
AAACCTAATTAATCATGCGCAAATGGCTTTCTTGTTTTGCCGGAGTCACCTAGTGCAG	22900 fluorescence intensity (a.u.)
ATTAATTTCACTTTATTCTTCTTATAGATTACTACTAGTTCGGAGTCACCTAGTGCAG	10100 fluorescence intensity (a.u.)
GCTAATTGCACCCATCAATTCAACTCCTCCGAACCCACAACGGAGTCACCTAGTGCAG	30000 fluorescence intensity (a.u.)
GGTTGATTGATCCGCCACGCAAGCTTTGCTACCTAACCATCGGAGTCACCTAGTGCAG	40500 fluorescence intensity (a.u.)

Sequence	binding signal
TGTTTTCCTAAGTGATTGGTGGGAAACCTCGTAGGATAAGCGGAGTCACCTAGTGCAG	9180 fluorescence intensity (a.u.)
GAGTAATTACTAATTAGCTGGTACACTCAATCCAGTACGGCGGAGTCACCTAGTGCAG	59000 fluorescence intensity (a.u.)
TGACAATTGACATAGCCTGACTTTTGGAAGTCTGCAGCTGCGGAGTCACCTAGTGCAG	14100 fluorescence intensity (a.u.)
CCTAATTAATCGATCAACTGCTACACTAGCTAAGACGACGCGGAGTCACCTAGTGCAG	23400 fluorescence intensity (a.u.)
ATTAAATTATACTTTTACCATTTTATGTAATCTTGAGCTTCGGAGTCACCTAGTGCAG	26000 fluorescence intensity (a.u.)
TAAATTGATGACGTGGCGCAATGAGGTGACGAAACACTTTCGGAGTCACCTAGTGCAG	31500 fluorescence intensity (a.u.)
TTTGATTTTGGGAGAACTAAAATCAGTTCTCCGAAGATCGCGGAGTCACCTAGTGCAG	5400 fluorescence intensity (a.u.)
AAATGATGGAATATTATATGGTGCAAAGAATTATACCATCCGGAGTCACCTAGTGCAG	3670 fluorescence intensity (a.u.)
AGATCATTAAAGTGGCTAATTTCTCTAAATAGCAGGCACTCGGAGTCACCTAGTGCAG	4540 fluorescence intensity (a.u.)
TTAATTTGCATTACTAAATATTATCGTAGCGTTAGCACGGCGGAGTCACCTAGTGCAG	12500 fluorescence intensity (a.u.)
CTGTCGTTGTTCTGCTAATTAATCTCGTAGCATTATTTACCGGAGTCACCTAGTGCAG	5220 fluorescence intensity (a.u.)
CGAGGTGATTTGCTCGGAGCTTTCGCTTTCTTACTAGTTTCGGAGTCACCTAGTGCAG	5410 fluorescence intensity (a.u.)
AAGATTGACCGAGTTTTGTTTTAAACATTAAATATTTATGCGGAGTCACCTAGTGCAG	15900 fluorescence intensity (a.u.)
ATCCTCCTTGTAATATGAATAGGAATGTAAATGTGGACGGCGGAGTCACCTAGTGCAG	5660 fluorescence intensity (a.u.)
CCATCGGCAAATTTAACGGATGAAATTAGTGCCACTTGTTCGGAGTCACCTAGTGCAG	3180 fluorescence intensity (a.u.)
GCATTAATTATTATATATTCCACCGTTTAGCAGTTCAGAACGGAGTCACCTAGTGCAG	18500 fluorescence intensity (a.u.)
CAAACAGACATGAAAATTATATAACAAATGACAATATAAACGGAGTCACCTAGTGCAG	4460 fluorescence intensity (a.u.)
TAAGATGTTAATTGCGTCCACATTAATTAAGAACCCTATACGGAGTCACCTAGTGCAG	17900 fluorescence intensity (a.u.)
CTCTAAATTAGGGTTTAAACATCCGATGTGACAGCACCTTCGGAGTCACCTAGTGCAG	23100 fluorescence intensity (a.u.)
GGAAAACTGGAAATTACGACATATCGATCGCCATGTATCTCGGAGTCACCTAGTGCAG	13600 fluorescence intensity (a.u.)
GCAAACGGTTTAAATTGCCATCCCTACTTGAGAGAACTTGCGGAGTCACCTAGTGCAG	3380 fluorescence intensity (a.u.)

Sequence	binding signal
GTACAGTAAATTAAGTTATCTTTGCAGAAAGAAATGGGTACGGAGTCACCTAGTGCAG	5820 fluorescence intensity (a.u.)
TCTCATAAACTAATTATCCAATCTATGATCCGAACACATCCGGAGTCACCTAGTGCAG	12300 fluorescence intensity (a.u.)
TATATATATATATATATATAGTAGATTTAATATACCATGCCGGAGTCACCTAGTGCAG	8600 fluorescence intensity (a.u.)
TGTAAATTGCTGCAAAATTTTCACAGAAATTTCTGTACATCGGAGTCACCTAGTGCAG	22200 fluorescence intensity (a.u.)
AGCAAATTAATCCAAAACCTGTGCTCTAGCTAGCTGGAGCCGGAGTCACCTAGTGCAG	5640 fluorescence intensity (a.u.)
AATATAAATTAATTTATAGTTAAAACTTTTATATGACTTACGGAGTCACCTAGTGCAG	35200 fluorescence intensity (a.u.)
ATTTTGAAGTTCCTGTAAGTTGGACATATCTACTGGTTCCCGGAGTCACCTAGTGCAG	65500 fluorescence intensity (a.u.)
CATGAAAATTTTGGTGGGATAGGGATGGGGAATTGAGAAACGGAGTCACCTAGTGCAG	5260 fluorescence intensity (a.u.)
CTGATTTCGTACATTAATATGGTATTCCACGGTGGTACCTCGGAGTCACCTAGTGCAG	3350 fluorescence intensity (a.u.)
CAAATAGAGTAATTATCCTTCTGTGCCAGGTATTCGAAAACGGAGTCACCTAGTGCAG	8990 fluorescence intensity (a.u.)
GTCTGATTTAACTAAGGTCCTATTTAGTTCCTACAAAATGCGGAGTCACCTAGTGCAG	25800 fluorescence intensity (a.u.)
GATATAATATAGATAATTTGTTGAAGTAAGAAGAGATACGCGGAGTCACCTAGTGCAG	7120 fluorescence intensity (a.u.)
ACAGATTAAAACTGACAACCGAAGATCATATGCATCTAATCGGAGTCACCTAGTGCAG	5340 fluorescence intensity (a.u.)
AAAACCACATCGGATTGATTTAGAGGGTACAGTTTGTCCGCGGAGTCACCTAGTGCAG	10500 fluorescence intensity (a.u.)
TTATATTAATTTATTTTCAGAATTATTTAAGTAATACTTGCGGAGTCACCTAGTGCAG	26100 fluorescence intensity (a.u.)
GGTGACAGTGCTGCTGTTAAATTGGATGTGGAGCCTTCATCGGAGTCACCTAGTGCAG	3890 fluorescence intensity (a.u.)
GTTAACTGCAAATTACACGCAACGAAAACCCTCCATCGACCGGAGTCACCTAGTGCAG	35100 fluorescence intensity (a.u.)
TCGTTAATTGTACTTCTTGTTTCTGAAACTTTCCGGAGACCGGAGTCACCTAGTGCAG	26300 fluorescence intensity (a.u.)
TCTTTATTTCTTGTTGATTATAGGATCAAATCAACTGGCTCGGAGTCACCTAGTGCAG	8300 fluorescence intensity (a.u.)
ACATCTAATTTGAAATGGATGTAGTATATTCTAATTGCATCGGAGTCACCTAGTGCAG	17000 fluorescence intensity (a.u.)
AGGTTAGATTGGATTGATCCAGCAGTTTTAGTAGTCTGGACGGAGTCACCTAGTGCAG	29500 fluorescence intensity (a.u.)
